Laboratory results as given in ChEMBL document CHEMBL4888484, “Replenishing the malaria drug discovery pipeline: Screening and hit evaluation of the MMV Hit Generation Library 1 (HGL1) against asexual blood stage Plasmodium falciparum ,using a nano luciferase reporter read-out” (2022).
Out of some 150,000 compounds screened, about 540 (0.36%) showed an effect of 50% or more. This is one part of the list.

system: Plasmodium falciparum; test: Primary screen in NF54 nanoGlo assay, in single point, at 2uM, 72h; a lower Z score goes with more inhibition; assay type: functional, Erythrocyte; settings: timepoint 72 hour

| SMILES | % Inhibition [%] | Z score |
| --- | --- | --- |
| O=C(CCc1nc(O)c2ccccc2n1)Nc1cccc(S(=O)(=O)N2CCOCC2)c1 | -9 | 1.01 |
| c1ccc([C@@H](NCc2ccc3occc3c2)c2nnc[nH]2)cc1 | 1 | -0.07 |
| O=C(c1cccnc1)N1CCc2cc3ccc2[C@@H]1c1cccc(c1)OCCCn1cc(nn1)CO3 | -20 | 2.5 |
| CON(C)CCNCc1c(C)nc2sc(C)cn12 | -10 | 1.36 |
| CCc1ccc(C(=O)N[C@@H](C)Cn2ccnc2)o1 | 12 | -1.59 |
| Cc1c(C(=O)N2CCCCC2)c(S(=O)(=O)N2CCC(C)CC2)c(C)n1C | -15 | 2.86 |
| CCc1nn(-c2ccc(OC)cc2)c(Oc2ccc(C)cc2)c1CCC(=O)NCCN1CCCC1 | 0 | -0.02 |
| CNC(=O)CN1CCCCC1C1CCCN(C(=O)OC(C)(C)C)C1 (stereo unspecified) | 1 | -0.16 |
| COc1ccc(OC)c2c1cc1n2C[C@@](C)(C(=O)NC2CCCC2)N(CCN2CCOCC2)C1=O | 2 | -0.39 |
| CC(=O)Nc1ccc(NC(=O)C2CCN(S(=O)(=O)c3ccc(-c4cc(C)n[nH]4)o3)CC2)cc1 | -8 | 1.33 |
| CC1(C)CC(NC(=O)C2(c3ccccc3)CCC(=O)NC2)CCO1 (stereo unspecified) | -5 | 0.68 |
| CCN(Cc1cc2ccccc2nc1O)C(=O)C1CCCCC1 | 0 | -0.01 |
| O=C(Nc1ccc(Cl)cc1)N1CC(c2nc(-c3ncccn3)no2)C1 | 5 | -1.01 |
| Cc1ccc(F)cc1C1(c2noc([C@@H]3CCCC[C@@H]3N)n2)CC1 | 0 | -0.05 |
| N#Cc1ccc(S(N)(=O)=O)c(F)c1 | -5 | 0.64 |
| CN(C)C[C@@H]1CN(c2ncccn2)C[C@H]1NC(=O)Cc1cccc(Cl)c1 | -8 | 1.23 |
| CC(C)(C)[C@@H]1NC(=O)CC[C@H]1NC(=O)[C@@H]1C[C@H]1c1ccc(Cl)cc1 | -11 | 0.92 |
| CC(C)c1cnc(CNc2nc(-c3nccn3C)no2)s1 | -12 | 1.61 |
| O=C(C1CCCCC1c1nc2ccccc2s1)N1CCC(c2nc3ccccc3s2)CC1 (stereo unspecified) | 0 | -0.07 |
| COc1ccc(F)cc1S(=O)(=O)N1CCc2noc(N)c2C1 | 72 | -5.81 |
| Cc1nccc(C(=O)Nc2nc(-c3cc(C)c(F)cc3F)cs2)n1 | -5 | 1.02 |
| COc1cccc(-c2noc(-c3cn(-c4ccc(C)c(C)c4)c(=O)c4ccccc34)n2)c1 | -3 | 0.48 |
| Cc1oncc1C(=O)NC[C@H]1Cc2ccccc2CO1 | 3 | -0.36 |
| CCCS(=O)(=O)NCCn1ccc(-c2ccsc2)n1 | -4 | 0.83 |
| CC(=O)N[C@H]1[C@H](NS(=O)(=O)c2cccc3nn(C)nc23)[C@@H]2CCO[C@@H]21 | -5 | 0.52 |
| O=C1C[C@H](N2CCN(C(c3ccccc3)c3ccccc3)CC2)C(=O)N1c1ccc(Oc2ccccc2)cc1 | -5 | 0.69 |
| CCOCC(=O)N1CCN(C(=O)C2CCCC2)CC1 | 0 | -0.04 |

| SMILES | % Inhibition [%] | Z score |
| --- | --- | --- |
| CCNC(=O)[C@@]1(OCc2cccc(C)c2)CC(OCc2ccccc2C#N)[C@@H]2OC(C)(C)O[C@@H]2C1 (stereo partly specified) | -3 | 0.37 |
| CC(C)c1ccc(N(C)C(=O)[C@H](C)NC(=O)C(C)(C)C)cc1 | -8 | 1.25 |
| Cn1cccc1CN1C[C@@H](CO)[C@H](NC(=O)c2cccnc2)C1 | -7 | 1.32 |
| COC[C@@](C)(O)CNC(=O)c1cc(C)oc1C | -6 | 0.91 |
| COc1ccc2c(c1)CCc1cnc(-n3ncc(C(=O)NCc4ccccn4)c3C)nc1-2 | -4 | 0.69 |
| O=C1NCCCc2[nH]c(-c3cc(-c4ccccc4Cl)on3)nc21 | -6 | 1.16 |
| CS(=O)(=O)C1(c2ccc(C#N)cc2)CC1 | -11 | 1.75 |
| Cc1nc(Cc2noc([C@@H]3CCCc4ccccc43)n2)no1 | -3 | 0.56 |
| CC[C@H]1OCC[C@@H]1NS(=O)(=O)c1cc(Br)c(F)cc1C | -8 | 0.65 |
| CC(C)(C)n1nnc(CN2CCC[C@H](c3nc4c(s3)CCC4)C2)n1 | -3 | 0.61 |
| CC(C)Oc1nccnc1N1CC[S@+]([O-])C(C)(C)C1 | -11 | 1.29 |
| OC(CN(CC1CCOC1)C1CC1)c1ccc(OC(F)(F)F)cc1 (stereo unspecified) | -1 | 0.1 |
| Cc1noc(NC(=O)N2CCCCC[C@H]2c2ccccc2)n1 | 0 | 0.03 |
| N#Cc1cccnc1NCCCNc1ncccc1C#N | -21 | 1.88 |
| O=C(CS(=O)(=O)CC1CCCO1)N1CCCC(n2cccn2)C1 (stereo unspecified) | -4 | 0.36 |
| COc1ccc(CCNC(=O)Cn2ncc(N(C)C)cc2=O)cc1 | -18 | 2.67 |
| CO[C@H]1CS(=O)(=O)C[C@@H]1Nc1nc(C)nc(C)c1C | -9 | 1.1 |
| CC(C)(C)n1ncc2c(Oc3ccc(-n4cncn4)cc3)ncnc21 | -1 | 0.12 |
| COC(=O)[C@H](C)NCC(=O)Nc1ccc(F)cc1 | -41 | 4.78 |
| O=C(NCCCOCC1CC1)NC1CCCC2OCCC12 (stereo unspecified) | -26 | 3.07 |
| CC1CCC(N(CCC(=O)O)C[C@H]2CCCO2)CC1 (stereo partly specified) | -23 | 2.3 |
| CC(COC1CCOC1)Nc1ncncc1Br (stereo unspecified) | 2 | -0.33 |
| CC[C@H]1CC[C@@H](C)N(C(=O)c2n[nH]c3ccccc23)C1 | -6 | 1.03 |
| Cc1[nH]c2c(C)ccc(C)c2c1CC(=O)NCCN(C)S(C)(=O)=O | -15 | 2.51 |
| CCOC(=O)N1CCN(c2nc3ccc(C)cc3cc2CN[C@@H](C)COC)CC1 | -12 | 1.72 |
| Nc1cc(N2CCO[C@H](c3nccs3)C2)c(Cl)cn1 | 2 | -0.37 |
